Measured values from the supplement of paper PMC4967469.
By IC50 is meant the dose at which the fit gives 50% viability; a limit (>, <) means that the fit lies beyond the doses tested. AUC sums up the same curve from the lowest dose to the 256-fold higher top dose; the more sensitive the line, the further below 1. For some assays here: The top dose, if marked as inferred, is not printed in the source and was worked back from the curve model. For some assays here: Drugs with an entry number were screened twice under separate entries, and the two screens often disagree.

How the values were obtained:
Assay in all cases: Viability of human cancer cell lines after 72 h of drug (GDSC screen)
GNF-2 = compound: NC(=O)c1cccc(-c2cc(Nc3ccc(OC(F)(F)F)cc3)ncn2)c1 [GNF-2]; details: top dose 1.28 µM; top dose inferred
Protocol: (§1)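 Human cancer cell lines in 384-well plates, medium with 10% serum, drug for 72 h over a 256-fold dose range (nine 2-fold or five 4-fold steps up to the top dose). Adherent lines were fixed and stained with the nucleic acid dye Syto60, suspension lines read with resazurin; signal relative to control wells, capped at 0 and 100%. One two-parameter sigmoid per drug and line, fitted in a mixed model over all curves with the slope shared within a line.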

MP470 = compound: S=C(NCc1ccc2c(c1)OCO2)N1CCN(c2ncnc3c2oc2ccccc23)CC1 [MP470]; details: top dose 20 µM; top dose inferred
Protocol: as §1

TW-37 = compound: CC(C)c1ccccc1Cc1cc(C(=O)Nc2ccc(S(=O)(=O)c3ccccc3C(C)(C)C)cc2)c(O)c(O)c1O [TW-37]; details: top dose 5 µM
Protocol: as §1

Bicalutamide = compound: CC(O)(CS(=O)(=O)c1ccc(F)cc1)C(=O)Nc1ccc(C#N)c(C(F)(F)F)c1 [Bicalutamide]; details: top dose inferred
Protocol: as §1

LFM-A13 = compound: C/C(O)=C(\C#N)C(=O)Nc1cc(Br)ccc1Br [LFM-A13]; details: top dose 16 µM; top dose inferred
Protocol: as §1

KIN001-270 = compound: Cc1ccc(Nc2cc(-c3cccc(N4C(=O)c5ccccc5C4=O)c3)ncn2)cc1NS(C)(=O)=O [KIN001-270]; details: top dose 20 µM; top dose inferred
Protocol: as §1

Gemcitabine = compound: Nc1ccn([C@@H]2O[C@H](CO)[C@@H](O)C2(F)F)c(=O)n1 [Gemcitabine]; details: top dose 1.024 µM
Protocol: as §1

AUY922 = compound: CCNC(=O)c1noc(-c2cc(C(C)C)c(O)cc2O)c1-c1ccc(CN2CCOCC2)cc1 [AUY922]; details: top dose 0.256 µM; top dose inferred
Protocol: as §1

T0901317 = compound: O=S(=O)(c1ccccc1)N(CC(F)(F)F)c1ccc(C(O)(C(F)(F)F)C(F)(F)F)cc1 [T0901317]; details: top dose 10.24 µM; top dose inferred
Protocol: as §1

Nilotinib = compound: Cc1cn(-c2cc(NC(=O)c3ccc(C)c(Nc4nccc(-c5cccnc5)n4)c3)cc(C(F)(F)F)c2)cn1 [Nilotinib]; details: top dose 2 µM
Protocol: as §1

[1] = top dose 1.024 µM, screen: GDSC drug entry 150
[2] = top dose 10 µM, screen: GDSC drug entry 1502

| Cell Line | AUC (GNF-2) | IC50 (GNF-2) [µM] | AUC (MP470) | IC50 (MP470) [µM] | AUC (TW-37) | IC50 (TW-37) [µM] | AUC (Bicalutamide; [1]) | IC50 (Bicalutamide; [1]) [µM] | AUC (Bicalutamide; [2]) | IC50 (Bicalutamide; [2]) [µM] | AUC (LFM-A13) | IC50 (LFM-A13) [µM] | AUC (KIN001-270) | IC50 (KIN001-270) [µM] | AUC (Gemcitabine) | IC50 (Gemcitabine) [µM] | AUC (AUY922) | IC50 (AUY922) [µM] | AUC (T0901317) | IC50 (T0901317) [µM] | AUC (Nilotinib) | IC50 (Nilotinib) [µM] |
| --- | --- | --- | --- | --- | --- | --- | --- | --- | --- | --- | --- | --- | --- | --- | --- | --- | --- | --- | --- | --- | --- | --- |
| 8-MG-BA (glioma, adherent) | 0.988 | > 1.28 | 0.933 | > 20 | 0.445 | 0.223 | 0.988 | > 1.02 | 0.976 | > 10 | 0.95 | > 16 | 0.944 | > 20 | 0.158 | 0.00626 | 0.521 | 0.0182 | 0.98 | > 10.2 | 0.982 | > 2 |
| Raji (Burkitt lymphoma, suspension) | 0.984 | > 1.28 | 0.974 | > 20 | 0.76 | 1.65 | 0.99 | > 1.02 | 0.986 | > 10 | 0.982 | > 16 | 0.971 | > 20 | 0.727 | 0.269 | 0.814 | 0.128 | 0.963 | > 10.2 | 0.99 | > 2 |
| NCI-H211 (small cell lung carcinoma, adherent) | 0.98 | > 1.28 | 0.78 | 8.01 | 0.916 | > 5 | 0.983 | > 1.02 | 0.97 | > 10 | 0.965 | > 16 | 0.986 | > 20 | 0.255 | 0.013 | 0.528 | 0.019 | 0.988 | > 10.2 | 0.95 | > 2 |
| ALL-PO (lymphoblastic leukaemia, suspension) | 0.956 | > 1.28 | 0.76 | 7.41 | 0.385 | 0.148 | 0.982 | > 1.02 | 0.971 | > 10 | 0.912 | > 16 | 0.855 | 17.3 | 0.143 | 0.00452 | 0.444 | 0.0111 | 0.866 | 10.1 | 0.862 | 1.87 |
| SHP-77 (small cell lung carcinoma, semi-adherent) | 0.991 | > 1.28 | 0.323 | 0.427 | 0.593 | 0.545 | 0.992 | > 1.02 | 0.991 | > 10 | 0.991 | > 16 | 0.977 | > 20 | 0.914 | > 1.02 | 0.817 | 0.124 | 0.968 | > 10.2 | 0.991 | > 2 |
| RKO (large intestine, adherent) | 0.988 | > 1.28 | 0.842 | 12.6 | 0.264 | 0.0703 | 0.988 | > 1.02 | 0.984 | > 10 | 0.988 | > 16 | 0.953 | > 20 | 0.073 | < 0.004 | 0.396 | 0.00848 | 0.985 | > 10.2 | 0.951 | > 2 |
| MFH-ino (soft tissue, adherent) | 0.979 | > 1.28 | 0.91 | > 20 | 0.457 | 0.234 | 0.983 | > 1.02 | 0.967 | > 10 | 0.966 | > 16 | 0.949 | > 20 | 0.137 | < 0.004 | 0.471 | 0.0132 | 0.979 | > 10.2 | 0.981 | > 2 |
| CTV-1 (acute myeloid leukaemia, suspension) | 0.992 | > 1.28 | 0.953 | > 20 | 0.591 | 0.526 | 0.99 | > 1.02 | 0.986 | > 10 | 0.97 | > 16 | 0.932 | > 20 | 0.184 | 0.0095 | 0.545 | 0.0207 | 0.98 | > 10.2 | 0.886 | 1.46 |
| NCI-H1581 (large cell lung carcinoma, semi-adherent) | 0.988 | > 1.28 | 0.881 | 18.1 | 0.358 | 0.131 | 0.99 | > 1.02 | 0.971 | > 10 | 0.985 | > 16 | 0.965 | > 20 | 0.909 | > 1.02 | 0.926 | > 0.256 | 0.963 | > 10.2 | 0.98 | > 2 |
| WSU-DLCL2 (B-cell lymphoma, suspension) | 0.993 | > 1.28 | 0.858 | 12.2 | 0.522 | 0.355 | 0.992 | > 1.02 | 0.983 | > 10 | 0.989 | > 16 | 0.982 | > 20 | 0.925 | > 1.02 | 0.993 | > 0.256 | 0.931 | > 10.2 | 0.992 | > 2 |
| DU-4475 (breast, suspension) | 0.992 | > 1.28 | 0.962 | > 20 | 0.623 | 0.635 | 0.984 | > 1.02 | 0.983 | > 10 | 0.958 | > 16 | 0.95 | > 20 | 0.14 | 0.00666 | 0.429 | 0.0107 | 0.991 | > 10.2 | 0.902 | 1.75 |
